Patent US20180318300A1, “TREATMENT OF AUTOIMMUNE DISEASE” (MingSight Pharmaceuticals, Inc., priority 2015, published 2018)

System: type II collagen arthritis in mice
Conditions: BID; for Change in Body Weight from Day 17 (g): Days 18-35; for Change in Body Weight from Day 17 (g) / Paw Score AUC: mean (SE); for Paw Score AUC: AUC Study Days 18-35; for Percent Incidence: disease incidence at study termination

Structure (SMILES) | Change in Body Weight from Day 17 (g) (0.1 mg/kg PO) | Paw Score AUC (0.1 mg/kg PO) | Percent Incidence (0.1 mg/kg PO) | Percent Incidence (0.1 mg/kg PO, listed as Dex) | Reduction of arthritis scores expressed as area under the curve (AUC) compared to Vehicle Controls (Dex 0.1 mg/kg PO) | Change in Body Weight from Day 17 (g) (60 mg/kg PO) | Paw Score AUC (60 mg/kg PO) | Percent Incidence (60 mg/kg PO) | Change in Body Weight from Day 17 (g) (90 mg/kg PO) | Paw Score AUC (90 mg/kg PO) | Percent Incidence (90 mg/kg PO) | Reduction of arthritis scores expressed as area under the curve (AUC) compared to Vehicle Controls (120 mg/kg PO) | Change in Body Weight from Day 17 (g) (120 mg/kg PO) | Paw Score AUC (120 mg/kg PO) | Disease-induced body weight loss (percent change from baseline) compared to Vehicle Controls (120 mg/kg PO, Days 20 and 34) | Percent Incidence (120 mg/kg PO) | Clinical arthritis scores measured daily compared to Vehicle Controls (120 mg/kg PO, p<0.05 on Days 27-35)
C[C@@H]1C[C@H]2[C@@H]3CCC4=CC(=O)C=C[C@]4(C)[C@@]3(F)[C@@H](O)C[C@]2(C)[C@@]1(O)C(=O)CO [Dexamethasone, reference compound] | −2.44 (0.68) g | *0.00 (0.00) | 0% | 0% | 100% | – | – | – | – | – | – | – | – | – | – | – | –
Cc1ncc(F)c(Nc2n[nH]c3c2CN(C(=O)N2C[C@@H](C)N(CC4CCOCC4)C[C@@H]2C)C3(C)C)n1 [compound A, 5-{[(2S,5R)-2,5-dimethyl-4-(tetrahydro-2H-pyran-4-ylmethyl)piperazin-1-yl]carbonyl}-N-(5-fluoro-2-methylpyrimidin-4-yl)-6,6-dimethyl-1,4,5,6-tetrahydropyrrolo[3,4-c]pyrazol-3-amine] | – | – | – | – | – | −1.55 (0.48) g | 22.91 (2.82) | 100% | −0.86 (0.52) g | 9.85 (2.37) | 92% | 72% | −0.25 (0.26) g | *5.74 (1.41) | inhibited | 83% | reduced toward normal

Like-named read-outs stand apart in the source and are kept apart here.
